The list shows a part of the results. These are noisy estimates, calculated here from bound and input reads.

The record followed here is the BET-seq Pho4 binding data (Le et al. 2018).

For the test, the target named is T1, Pho4 (S. cerevisiae) (UniProt P07270).
T1 sequence: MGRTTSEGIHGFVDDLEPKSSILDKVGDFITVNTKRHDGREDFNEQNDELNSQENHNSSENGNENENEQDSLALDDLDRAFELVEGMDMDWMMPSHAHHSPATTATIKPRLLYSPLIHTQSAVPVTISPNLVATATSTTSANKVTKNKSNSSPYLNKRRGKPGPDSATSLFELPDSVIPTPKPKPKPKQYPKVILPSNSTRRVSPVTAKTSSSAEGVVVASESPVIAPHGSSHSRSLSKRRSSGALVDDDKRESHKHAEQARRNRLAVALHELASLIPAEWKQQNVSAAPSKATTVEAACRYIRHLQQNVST
Put plainly: relative binding free energy (BET-seq); higher = weaker binding. The following applies: reference: library average.
For TGTTGCACGTGGGCTC, the “relative binding free energy” value was -0.21 kcal/mol. Consider GGGTTCACGTGTATTT, for which the “relative binding free energy” value worked out at 0.4 kcal/mol.

For GATAGCACGTGGAGGA, the “relative binding free energy” value is -0.09 kcal/mol.

Turning to TTTGCCACGTGGTAGT, the “relative binding free energy” value is 0 kcal/mol. Then AAGTGCACGTGTCGTG, with 0.02 kcal/mol; and GGGGCCACGTGGGACG, with -0.16 kcal/mol; and TTAAGCACGTGCTAGT, with -0.12 kcal/mol.

Consider GGCTCCACGTGTGAGG, for which the “relative binding free energy” value was 0.1 kcal/mol. To TCGGGCACGTGTGGGG belongs 0.06 kcal/mol. Regarding CGAAGCACGTGGAGTT, the “relative binding free energy” value is -0.06 kcal/mol.

With AGGCGCACGTGTATAG, the “relative binding free energy” value was -0.08 kcal/mol.

Regarding GGCGGCACGTGATTGG, the “relative binding free energy” value is 0.09 kcal/mol. To CGGGTCACGTGGTTCT belongs 0.08 kcal/mol. CCAGTCACGTGGGTTG: the “relative binding free energy” value was -0.03 kcal/mol. For the sequence GAGGCCACGTGGGGGA, the “relative binding free energy” value is -0.14 kcal/mol.

On to GGGTACACGTGATTAT, for which the “relative binding free energy” value is 0.1 kcal/mol.

In the case of TCTATCACGTGTTTGT, the “relative binding free energy” value was -0.07 kcal/mol. Then GGATCCACGTGAAGGT, with 0.42 kcal/mol; and TTGGGCACGTGTATTT, with 0.07 kcal/mol. To ATGTTCACGTGTAGCA belongs 0.22 kcal/mol; to TGTTCCACGTGGGGGC, -0.05 kcal/mol. Regarding TGTAGCACGTGTGCAA, the “relative binding free energy” value was -0.03 kcal/mol.

AGTTTCACGTGGCAGG: the “relative binding free energy” value turned out to be 0.14 kcal/mol. Take TGTCTCACGTGTACGT: the “relative binding free energy” value turned out to be 0.17 kcal/mol.

For TTTGGCACGTGTAATT, the “relative binding free energy” value was determined as 0.02 kcal/mol. Then CGCGGCACGTGGAGGT, with -0.07 kcal/mol. To GGAGTCACGTGAATTG belongs 0.33 kcal/mol; to AATTTCACGTGGTGTA, 0.14 kcal/mol; to TTAGTCACGTGCGTTT, 0.15 kcal/mol. For the sequence GTTCGCACGTGCATGT, the “relative binding free energy” value worked out at 0.11 kcal/mol.

As to TATCGCACGTGATTGT, the “relative binding free energy” value was -0.02 kcal/mol.

Turning to TATTTCACGTGATTCA, the “relative binding free energy” value came out at 0.27 kcal/mol.

As to ACTATCACGTGAATGG, the “relative binding free energy” value came to 0.57 kcal/mol. To ATGCTCACGTGATATT belongs 0.32 kcal/mol. As to ATGTACACGTGAGTGT, the “relative binding free energy” value is 0.24 kcal/mol. Then AGCGTCACGTGATAGT, with 0.23 kcal/mol; and ATAGTCACGTGCGATG, with 0.1 kcal/mol. Then TGGTGCACGTGTGCAT, with -0.02 kcal/mol; and GGAACCACGTGTAGTG, with 0.07 kcal/mol; and TGGTGCACGTGAGCCG, with 0.12 kcal/mol. As for GCTTGCACGTGAGTGT, the “relative binding free energy” value is 0.14 kcal/mol. Then GTTGGCACGTGTAAAT, with 0.19 kcal/mol; and GGTGGCACGTGAGCGG, with 0.02 kcal/mol; and GGAGACACGTGGTAGG, with -0.05 kcal/mol. For the sequence TAGGTCACGTGGTTGA, the “relative binding free energy” value amounted to 0.03 kcal/mol.

For the sequence ATGAGCACGTGGCGTG, the “relative binding free energy” value was -0.2 kcal/mol.

On to TGAGGCACGTGTGCAA, for which the “relative binding free energy” value is -0.06 kcal/mol. To GGCTGCACGTGGGATG belongs -0.03 kcal/mol. Then GGTGTCACGTGGGATC, with -0.03 kcal/mol; and TGCAGCACGTGAAGGT, with 0.19 kcal/mol. With TTTCTCACGTGGTAGT, the “relative binding free energy” value was found to be 0.2 kcal/mol. Then GGCGGCACGTGTGGAA, with 0.04 kcal/mol. ATCGGCACGTGGTGTC: the “relative binding free energy” value was -0.17 kcal/mol. To CCTGGCACGTGGTGGG belongs -0.21 kcal/mol. Then GGGGCCACGTGAGGGC, with 0.26 kcal/mol; and TGGGGCACGTGCGGTT, with -0.17 kcal/mol. Then GATAACACGTGAGGTG, with 0.21 kcal/mol; and GTGGACACGTGGTCCT, with 0.18 kcal/mol.

As for GTTAGCACGTGGATAG, the “relative binding free energy” value is -0.07 kcal/mol. Turning to GGGTCCACGTGATTGA, the “relative binding free energy” value came to 0.17 kcal/mol. To TTGTGCACGTGTCTAA belongs -0.12 kcal/mol. To GGCGCCACGTGGAGGG belongs -0.07 kcal/mol; to GTTTACACGTGAAGGG, 0.26 kcal/mol. Regarding GGCTGCACGTGATGTT, the “relative binding free energy” value amounted to 0.16 kcal/mol. As to GAAATCACGTGTATTG, the “relative binding free energy” value came out at 0.26 kcal/mol. To AAATTCACGTGCAGGG belongs 0.27 kcal/mol.

As to TGGGGCACGTGTGTGC, the “relative binding free energy” value is -0.17 kcal/mol. Then CTATTCACGTGTAAGT, with 0.28 kcal/mol; and GGTCACACGTGGTGTG, with 0.07 kcal/mol; and GGTGGCACGTGTAGGC, with -0.05 kcal/mol.

For CGGGTCACGTGCGCGG, the “relative binding free energy” value was -0.04 kcal/mol.

For the sequence GAATTCACGTGAGTGT, the “relative binding free energy” value came out at 0.48 kcal/mol. Then TTAGTCACGTGACATT, with 0.14 kcal/mol; and GTTGTCACGTGATGAT, with 0.21 kcal/mol; and TGGCCCACGTGTATGG, with -0.06 kcal/mol.

As for ACTGGCACGTGTGGTT, the “relative binding free energy” value is -0.08 kcal/mol. Then TTAGACACGTGTTCAT, with 0.04 kcal/mol. To GGGAACACGTGCTTGT belongs 0 kcal/mol; to CTAGGCACGTGTGGAG, -0.11 kcal/mol; to TTGTACACGTGACGAG, 0.24 kcal/mol. To CGTCTCACGTGGGGAG belongs 0.04 kcal/mol; to TTGTTCACGTGGGATC, 0.24 kcal/mol; to AGCGTCACGTGGGTAT, -0.08 kcal/mol. Take TGTAGCACGTGGAGCT: the “relative binding free energy” value was -0.17 kcal/mol. As to GGGGACACGTGTCGTG, the “relative binding free energy” value stood at 0.03 kcal/mol. To AAGCGCACGTGTTTGT belongs -0.09 kcal/mol. For the sequence TGACTCACGTGAAGGG, the “relative binding free energy” value stood at 0.17 kcal/mol. To TTAAGCACGTGAAATG belongs 0.22 kcal/mol. To GAGGTCACGTGGTTTC belongs 0.22 kcal/mol. Then ACTAGCACGTGGATGG, with -0.1 kcal/mol; and GTCTGCACGTGGTAAT, with -0.07 kcal/mol. Regarding TCTGGCACGTGTGGGA, the “relative binding free energy” value is -0.01 kcal/mol. To TGTATCACGTGTGTTT belongs 0.15 kcal/mol; to GATTACACGTGAAGGG, 0.23 kcal/mol. To TATAGCACGTGAGAAG belongs 0.3 kcal/mol; to TTTTTCACGTGTGTCG, 0.21 kcal/mol. To CTGGTCACGTGTGTAA belongs 0.15 kcal/mol; to TAAGTCACGTGCCGGT, 0.19 kcal/mol. Take TCAGGCACGTGGTTTT: the “relative binding free energy” value was -0.2 kcal/mol. Then ACATTCACGTGTGTTG, with 0.15 kcal/mol. In the case of GTTTGCACGTGGGACC, the “relative binding free energy” value is 0.12 kcal/mol. Then TAGTACACGTGTGTGT, with 0.08 kcal/mol.

In the case of TGTATCACGTGTAGGT, the “relative binding free energy” value was 0.08 kcal/mol. To TGTTTCACGTGCAGTC belongs 0.26 kcal/mol. Turning to CGGGACACGTGTTGAA, the “relative binding free energy” value is 0.14 kcal/mol.

For the sequence TAGTTCACGTGGTTTA, the “relative binding free energy” value came out at 0.2 kcal/mol. Then TTTTCCACGTGTTGTT, with 0.02 kcal/mol; and CGGTTCACGTGTTAGG, with 0.35 kcal/mol; and AGATGCACGTGGATTA, with -0.05 kcal/mol.

GGGCGCACGTGAGATG: the “relative binding free energy” value was determined as 0.2 kcal/mol.

As to TGGGTCACGTGATTAA, the “relative binding free energy” value was found to be 0.19 kcal/mol. Then TGAGCCACGTGGTATT, with -0.15 kcal/mol; and TCAAGCACGTGGTTGA, with -0.08 kcal/mol; and GGTACCACGTGGATGT, with -0.11 kcal/mol. Take GGAGTCACGTGGCATA: the “relative binding free energy” value was determined as 0.09 kcal/mol.
